# ChEMBL document CHEMBL1201862, “PubChem BioAssay data set” (2004)
#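 Protocol summary: plate cells (96-well), add compound at 5 concentrations, incubate 48 h, interpolate endpoints linearly. GI50 is the concentration that inhibits growth by half.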 Active and inactive are the calls of the source. Rule as the data show it: active = GI50 up to about 1.1 µM and inactive = higher.
# Tested on: NCI-H322M
# Assay: NCI-60 cell line screen, 48 h
row,Compound,GI50
1,COc1ccc2oc(=O)cc(C)c2c1,inactive: > 100 µM
2,O=C(O)c1ccc(Oc2nc3ccccc3s2)cc1,inactive: > 100 µM
3,COc1cc(/C=C2\C[C@H]3[C@@H]4CC=C5C[C@@H](N6CCCC6)CC[C@]5(C)[C@H]4CC[C@]3(C)[C@H]2O)cc(OC)c1OC,inactive: 16.1 µM
4,NNC(=O)CS(=O)(=O)Nc1ncccn1,inactive: > 100 µM
5,O=[N+]([O-])c1ccc2c(c1)C(N1CCN(CCO)CC1)Cc1ccc(F)cc1S2 (configuration not stated),inactive: 12.3 µM
6,CC(=O)OCC1OC(n2c(-c3ccccc3)c(C)c(C)c(C#N)c2=S)C(OC(C)=O)C(OC(C)=O)C1OC(C)=O (configuration not stated),inactive: > 100 µM
7,CC1(C)CC(C2CC(C)(C)CC(C)(C)[C@H]2O)[C@@H](O)C(C)(C)C1 (some centres not stated),inactive: > 100 µM
8,CCOC(=O)c1cc2c(cn1)[nH]c1cccc(N)c12,inactive: > 100 µM
9,COC(=O)/C=C/c1ccc2nncnc2c1.COC(=O)/C=C\c1ccc2nncnc2c1,inactive: 50 µM
10,N#Cc1c(N)n(-c2nc3ccccc3s2)c(=O)c2cc([N+](=O)[O-])ccc12,inactive: 14.9 µM
11,CN(C)N1C(=O)c2ccccc2NC1c1ccccc1 (configuration not stated),inactive: > 100 µM
12,O=C1CSC(/C(=C/c2ccccc2)c2nc3ccccc3[nH]2)=N1,inactive: 60.3 µM
13,O=C1/C(=C/C=C/c2ccccc2)CCC1CNc1ccccc1 (configuration not stated),inactive: > 100 µM
14,O=C(C/C=C/c1ccccc1)c1ccccc1,inactive: > 100 µM
15,O=C1c2cc3c(cc2CC12Cc1cc4c(cc1C2)CCC4)CCC3,inactive: > 100 µM
16,CC(C#N)NCc1ccc(C(C)NC(C)C#N)cc1 (configuration not stated),inactive: > 100 µM
17,O=c1c2cc(I)ccc2nc(SCc2nncs2)n1Cc1ccccc1,inactive: 20.4 µM
18,C=C(C(=O)OC)N1C(=O)CC(C)C1=O (configuration not stated),inactive: 44.2 µM
19,CCOc1ncn(-c2ccc(NC(=S)Nc3cnccn3)cc2)n1,inactive: > 10 µM

row,Compound,GI50
1,N/C(CCSCCSCC/C(N)=N\O)=N\O,inactive: > 100 µM
2,N=S(=O)(c1ccccc1)c1ccccc1,inactive: > 100 µM
3,Cc1cc(Nc2ccc(/N=N/c3ccc(O)c4ncccc34)cc2)nc(C)n1,inactive: 22.4 µM
4,Cc1ccc2c(c1)C(=O)c1nc(C)ccc1C2=O,inactive: 16.5 µM
5,C[C@H](NC(=O)OC1C2C=CC(O)C1CC2)c1ccccc1 (some centres not stated),inactive: > 100 µM
6,Cc1cn(C2CC(O)C(Cn3nncc3Cn3cnc4c(N)ncnc43)O2)c(=O)[nH]c1=O (configuration not stated),inactive: > 100 µM
7,CN1C(=O)[C@H](c2c[nH]c3ccccc23)[C@H](c2c[nH]c3ccccc23)C1=O,inactive: 45.5 µM
8,COc1ccc(-n2c(C)nc3ccc(/N=C/c4ccccc4)cc3c2=O)cc1,inactive: > 100 µM
9,O=C1CC(n2ccnc2)c2c(Cl)sc(Cl)c21 (configuration not stated),inactive: 19.2 µM
10,C[C@H](CCc1nc(C#N)c(N)o1)[C@H]1CC[C@H]2[C@@H]3CCC4C[C@@H](O)CC[C@]4(C)[C@H]3C[C@@H](O)[C@]12C (some centres not stated),inactive: 17.3 µM
11,O=c1[nH]c(=O)n(C2OC(CO)C(N(O)Cc3ccc(F)cc3)C2O)cc1Br (configuration not stated),inactive: > 100 µM
12,COc1cc(Nc2nc3cc(C)ccc3nc2-c2ccccc2)cc(OC)c1OC,inactive: 58.9 µM
13,CC1(c2ccc(F)cc2)C(C#N)C(=O)NC(=O)C1C#N (configuration not stated),inactive: > 100 µM
14,Cc1[nH]c(-c2ccccc2)c2nc(N(C)C)oc(=O)c12,inactive: > 100 µM
15,C[C@H]1C[C@H]2[C@@H]3CCC4=CC(=O)C=C[C@]4(C)C3=CC[C@]2(C)[C@@]1(O)C(=O)CO,inactive: > 100 µM
16,Cc1ccc2nc(-c3ccc(-n4c(C)nc(=O)c(-c5ccc(F)cc5)c4C)cc3)sc2c1,inactive: 16 µM
17,C1=CC2C(C3CN(c4ccccc4)N=C13)C1C3C4C=CC21C=CC43 (configuration not stated),inactive: > 100 µM
18,O=C(CCCn1cnc([N+](=O)[O-])n1)NCCCn1ccnc1[N+](=O)[O-],inactive: > 100 µM
